The whole screen tested about 44,000 compounds, of which about 340 (0.77%) were called active. Roughly 5% stayed inconclusive and do not appear here. Calls come from the whole dose curve; as a rule, active = well fitted inhibition curve with a large enough effect; inconclusive = small, poorly fitted or top-dose-only effect; inactive = flat fitted curve, though single readings scatter. This is one part of the list.
assay: Acumen qHTS Assay for Inhibitors of the mTORC1 Signaling Pathway in MEF (Tsc2-/-, p53-/-) Cells: Sytravon; settings: phospho-rpS6 immunofluorescence/PI, 24 h; series mostly up to 38.3 µM; activity change, negative = inhibition: at the top concentration;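 note: plate controls were DMSO for no effect and rapamycin for full effect; nearly all actives have a fitted effect of over 50% in size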
Procedure, shortened: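 Immunofluorescence of rpS6 phosphorylation in Tsc2-/-, p53-/- MEFs after 24 h compound exposure, normalized to propidium iodide signal. Activity is expressed as % positive cells, thresholded with 7.5 nM rapamycin.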

Compound | activity change, negative = inhibition
CC(C)NC(=O)Cn1c(=O)nc(-c2ccccc2)c2ccccc21 | inactive: 0%
CCOc1ccc(CCNC(=O)c2ccc(C)c(-n3cnc4cccnc43)c2)cc1 | inactive: -0.513%
CCOc1ccc(Nc2cc(C)c(C#N)c3nc4ccccc4n23)cc1 | inactive: 5.35%
Cc1cccc(N(C)C(=O)CS(=O)(=O)c2cccc3nsnc23)c1 | inactive: -1.41%
COc1cccc(CNC(=O)c2ccc3c(Cl)c4c(nc3c2)CCCC4)c1 | inactive: 3.36%
Cc1ccc(C(C)C)c(OCc2ccc(C(=O)Nc3ccc(S(N)(=O)=O)cc3C)o2)c1 | inactive: -1%
O=C(OCc1ccco1)c1ccc2c(c1)N(Cc1ccc([N+](=O)[O-])cc1)C(=O)c1ccccc1S2 | inactive: -9.3%
Cc1nc(-n2nc(C)c(CCC(C)C)c2C)sc1C(=O)Nc1cccc(Cl)c1C | inactive: 0.257%
CCOC(=O)c1c(NC(=O)c2ccccc2C)sc2c1CCCC2 | inactive: 2.87%
Oc1ccccc1-c1nc(/C=C/c2ccccc2)nn1-c1ccccc1 | inactive: 4.16%
O=C(CN1C(=O)COc2ccc(S(=O)(=O)N3CCCC3)cc21)NCCc1ccc(Cl)cc1 | inactive: -17.8%
O=c1[nH]c2ccc(NS(=O)(=O)c3ccc(F)cc3)cc2s1 | inactive: 1.66%
CCOc1ccc2nc(N3CCN(C(=O)C(C)C)CC3)sc2c1 | inactive: -13.7%
CC1CCN(c2nn3c(=O)c(C(=O)NCCc4ccc(Cl)cc4)cnc3s2)CC1 | inactive: -3.74%
Brc1ccc(-c2nc(N3CCN(c4ccccc4)CC3)c3ccccc3n2)cc1 | inactive: 0%
Cn1nnnc1SCCCNCc1ccc(-c2cccc(Cl)c2)o1 | inactive: -18.5%
Cc1ccc(-n2ccnc(NCCc3ccccc3)c2=O)cc1C | inactive: -10.1%
COc1ccc(NC(=O)CSc2nnc(-c3nonc3NC(C)=O)n2C)cc1Cl | inactive: 1.18%
Cc1ccccc1-n1c2nc(=O)[nH]c(=O)c-2cc2c(Cl)cccc21 | inactive: -27.3%
CCOC(=O)c1c(C)[nH]c(C)c1S(=O)(=O)N1CCCC(C(=O)Nc2ccc(OC)c(OC)c2)C1 (stereo not drawn) | inactive: -0.138%
O=c1cc2nc(-c3ccccc3F)nc(SCc3ccc(Br)cc3)n2[nH]1 | inactive: -4.79%
Cc1cccc(Cn2c(SCc3ccc(C(=O)NCc4cccs4)cc3)nc3cccnc32)c1 | inactive: -15.3%
CC(C)c1ccc(NC(=O)c2cc(S(=O)(=O)NC3CCCCC3)ccc2F)cc1 | inactive: -6.7%
COCCCN1C(=O)c2[nH]nc(-c3ccccc3O)c2C1c1ccc(OC)cc1 (stereo not drawn) | inactive: -21.7%
Cc1c(Cl)cccc1NC(=O)CCn1cnnn1 | inactive: -1.84%
CCN(CC)CCCNC(=O)C(C)n1nc(C)n2c(cc3occc32)c1=O (stereo not drawn) | inactive: -4.3%
COC(=O)c1cc(C)nc2c1c(=O)nc(SCc1cccc(C(F)(F)F)c1)n2C1CC1 | inactive: 0%
COc1ccc(Cl)cc1NC(=O)COC(=O)CC(C)(C)CC1=NS(=O)(=O)c2ccccc2N1 | inactive: -0.441%

Reference: PubChem BioAssay AID493208 (National Center for Advancing Translational Sciences (NCATS), 2011)
